The other results are listed elsewhere or left out. The energies were worked out here from pooled read counts, against the library average; single values are noisy.
target: T1, Pho4 (S. cerevisiae) (UniProt P07270); test: relative binding free energy (BET-seq); higher = weaker binding; settings: reference: library average
T1 sequence: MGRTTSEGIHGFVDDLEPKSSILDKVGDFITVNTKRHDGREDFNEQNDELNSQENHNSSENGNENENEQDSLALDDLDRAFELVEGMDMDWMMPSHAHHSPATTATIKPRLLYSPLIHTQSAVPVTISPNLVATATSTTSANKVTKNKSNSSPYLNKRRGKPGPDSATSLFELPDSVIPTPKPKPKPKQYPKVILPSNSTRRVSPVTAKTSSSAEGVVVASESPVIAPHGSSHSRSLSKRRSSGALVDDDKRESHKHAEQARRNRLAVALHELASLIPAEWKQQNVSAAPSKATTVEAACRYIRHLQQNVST

Sequence	relative binding free energy
TCTATCACGTGGGGTG	-0.17 kcal/mol
TAGGACACGTGGTTAG	-0.04 kcal/mol
GGTGGCACGTGTCATA	0.02 kcal/mol
GGGATCACGTGGGCCG	0.26 kcal/mol
GTTTGCACGTGGTTAT	0.02 kcal/mol
GACGGCACGTGGTAGA	0.01 kcal/mol
TGAGGCACGTGCTGAG	-0.21 kcal/mol
TAGCGCACGTGTTTTA	-0.05 kcal/mol
GTGTGCACGTGTGTTT	0.16 kcal/mol
ATATGCACGTGCTGAG	-0.02 kcal/mol
GTTGGCACGTGGACTA	0 kcal/mol
ATGTACACGTGGGCAG	-0.02 kcal/mol
TTTTACACGTGTATGT	0.06 kcal/mol
GTGGGCACGTGGCGTT	-0.1 kcal/mol
ATGTACACGTGGATTT	0.04 kcal/mol
TTGCGCACGTGTCGGT	-0.17 kcal/mol
AAGGTCACGTGTAGGT	0.19 kcal/mol
ACGTGCACGTGATTGG	-0.08 kcal/mol
AGTCGCACGTGCGGTG	-0.08 kcal/mol
TGTCGCACGTGAGTGA	-0.11 kcal/mol
TTTCGCACGTGTGTGA	-0.04 kcal/mol
TCGTGCACGTGCTGAG	0.05 kcal/mol
TTAAGCACGTGGGAGG	-0.21 kcal/mol
GTTGACACGTGAAATG	0.34 kcal/mol
TTGAACACGTGGGGGC	-0.17 kcal/mol
TTGGCCACGTGTGATT	0.01 kcal/mol

Sequence	relative binding free energy
AGTCACACGTGAGTGG	0.31 kcal/mol
CCTGTCACGTGTTGTT	0.13 kcal/mol
GGTATCACGTGCTTAG	0.19 kcal/mol
GTGTACACGTGGAGTG	-0.07 kcal/mol
GTTAACACGTGTTTGA	-0.02 kcal/mol
TGAAGCACGTGGATGT	-0.11 kcal/mol
GAGTGCACGTGATTAT	0.24 kcal/mol
TGGGGCACGTGACTGT	0.03 kcal/mol
TTTTTCACGTGAGGAC	0.29 kcal/mol
AATGTCACGTGTAGCT	-0.02 kcal/mol
GGTGGCACGTGGGCGT	-0.21 kcal/mol
GATCACACGTGGTTGT	0.28 kcal/mol
TGTCACACGTGATTTT	0.2 kcal/mol
TGGGACACGTGGATGT	0.06 kcal/mol
CGATGCACGTGATTGG	0.23 kcal/mol
ATTAGCACGTGCGATT	-0.01 kcal/mol
GTAAACACGTGGGTAT	-0.02 kcal/mol
CTTGGCACGTGGATTT	-0.12 kcal/mol
ATAGGCACGTGGTTTG	-0.05 kcal/mol
AGTAGCACGTGTTTTT	-0.01 kcal/mol
TGCGTCACGTGGGCGG	-0.05 kcal/mol
GTTGCCACGTGATGGT	0.22 kcal/mol
TTATTCACGTGTGATA	0.3 kcal/mol
ATCCTCACGTGGAGGG	0.33 kcal/mol
TCGTTCACGTGGGTGT	0.17 kcal/mol
GGGAACACGTGGGGCA	-0.05 kcal/mol

Sequence	relative binding free energy
GGAGGCACGTGCGAAG	-0.05 kcal/mol
TGGGTCACGTGTATGA	0.15 kcal/mol
AGGGGCACGTGGAGGC	-0.13 kcal/mol
ACTTGCACGTGGTCGG	-0.14 kcal/mol
GGCCGCACGTGGGGGA	-0.24 kcal/mol
ACTGGCACGTGTATTT	0.14 kcal/mol
CAGGGCACGTGGTGTG	-0.18 kcal/mol
GGTTGCACGTGGCAGT	0.05 kcal/mol
GGAGGCACGTGTAATA	0.14 kcal/mol
TGAGTCACGTGGTTAG	0.12 kcal/mol
AACTGCACGTGTGGAT	0.05 kcal/mol
TTCAGCACGTGGTATA	-0.13 kcal/mol
AGTGCCACGTGTGCGG	-0.11 kcal/mol
TGATTCACGTGGTTAT	0.17 kcal/mol
GTTGCCACGTGTTTGT	-0.23 kcal/mol
AGATACACGTGTGGGG	0.09 kcal/mol
GGAATCACGTGGACGT	0.2 kcal/mol
TAGTACACGTGCAGGG	0.09 kcal/mol
GTATCCACGTGGAGTG	0.03 kcal/mol
TCTGCCACGTGGGGGG	-0.24 kcal/mol
TGTGACACGTGTGCCT	0.02 kcal/mol
GGTATCACGTGTCAGG	0.14 kcal/mol
TTTGACACGTGGACGG	-0.1 kcal/mol
TCGTCCACGTGGGAGT	-0.01 kcal/mol
TGTCGCACGTGTTCGT	0.02 kcal/mol
TTTATCACGTGTTTAC	0.11 kcal/mol

Sequence	relative binding free energy
TCCGTCACGTGGTGTA	0.15 kcal/mol
TTAAGCACGTGTCGGG	-0.06 kcal/mol
TAATTCACGTGATGGG	0.47 kcal/mol
AGGTTCACGTGGATTG	0.24 kcal/mol
TGGCACACGTGATGTT	0.03 kcal/mol
ACGATCACGTGGGGGC	0.12 kcal/mol
AGGCTCACGTGTAGTT	0.22 kcal/mol
AGTTTCACGTGTATGA	0.29 kcal/mol
GGTACCACGTGGGAGG	-0.08 kcal/mol
ACGGACACGTGTGGAG	0.08 kcal/mol
GTGGGCACGTGGACTG	-0.12 kcal/mol
CTTTGCACGTGTGTAG	-0.06 kcal/mol
TTAAACACGTGTAGAA	0.22 kcal/mol
GGTATCACGTGCCTGT	0.15 kcal/mol
TGTTTCACGTGAGAAA	0.2 kcal/mol
AAAGGCACGTGAAGAG	0.22 kcal/mol
AGAGACACGTGGGTCG	-0.11 kcal/mol
GGTGACACGTGTGGCC	0.15 kcal/mol
AGGAGCACGTGTTTGC	-0.03 kcal/mol
AGGTGCACGTGCCAGT	-0.1 kcal/mol
ATTAGCACGTGAATGG	0.12 kcal/mol
TCATACACGTGGGGGC	0.06 kcal/mol
TGATACACGTGATGTA	0.01 kcal/mol
TTTAGCACGTGCCAGG	-0.05 kcal/mol
AATGGCACGTGTCGGA	-0.03 kcal/mol
GTTGTCACGTGACGAT	0.36 kcal/mol

Sequence	relative binding free energy
TTTTGCACGTGTAGTG	0.07 kcal/mol
ATGTTCACGTGAGGTA	0.23 kcal/mol
AGTGTCACGTGGTGGA	-0.04 kcal/mol
TCTATCACGTGGGTAG	-0.11 kcal/mol
ATTGGCACGTGTGGAC	0.05 kcal/mol
TATTCCACGTGTGATG	0.15 kcal/mol
GTATACACGTGGTCGT	0.07 kcal/mol
CTTCTCACGTGTGGTT	0.24 kcal/mol
TTTGCCACGTGTATTA	0.06 kcal/mol
TTGCACACGTGGGAGT	0.07 kcal/mol
GATGTCACGTGGGTGT	-0.07 kcal/mol
CAGTGCACGTGGGAGG	-0.16 kcal/mol
GTGTTCACGTGGTGCT	0.28 kcal/mol
TTATACACGTGAGGAA	0.23 kcal/mol
AATGACACGTGTTGGG	0.12 kcal/mol
AATGGCACGTGTAGAG	-0.07 kcal/mol
GCTCGCACGTGAAGGG	0.2 kcal/mol
GTAGGCACGTGGCGTA	-0.2 kcal/mol
TGTCTCACGTGTGTGA	0.06 kcal/mol
GAGGACACGTGCGGGC	0.05 kcal/mol
CAGAACACGTGGGGGG	-0.12 kcal/mol
TGTAGCACGTGGCTAA	-0.05 kcal/mol
ATATGCACGTGAGAGG	0.23 kcal/mol
TGTTTCACGTGAATGC	0.35 kcal/mol
GTAGGCACGTGTCAGG	-0.08 kcal/mol
GGAGTCACGTGTAGAT	0.31 kcal/mol

Sequence	relative binding free energy
CCGTTCACGTGGTTTT	0.16 kcal/mol
TGTGACACGTGATTTA	0.12 kcal/mol
CCGTGCACGTGGTTGG	-0.1 kcal/mol
TTGAACACGTGTAAGT	0.12 kcal/mol
TGTGCCACGTGAGAGG	0.2 kcal/mol
CAGTGCACGTGGTATG	-0.1 kcal/mol
TCTGGCACGTGGTAGC	-0.09 kcal/mol
TGTGACACGTGCTTGT	-0.07 kcal/mol
TGAGACACGTGTATTT	0.05 kcal/mol
GTTGGCACGTGGGATA	-0.16 kcal/mol
TATGACACGTGTGTAG	-0.13 kcal/mol
TGCGACACGTGGGGCG	-0.25 kcal/mol
ATTGGCACGTGTGAGT	-0.02 kcal/mol
GAGGGCACGTGTGACG	0.08 kcal/mol
GGGGACACGTGGCTTT	-0.06 kcal/mol
TGTGTCACGTGGGACG	0 kcal/mol
AGGGACACGTGGGTAT	-0.01 kcal/mol
TCGTTCACGTGTGTGC	0.29 kcal/mol
ATGTTCACGTGTATGA	0.3 kcal/mol
GAAAGCACGTGTGGAT	0.1 kcal/mol
TTAAGCACGTGGGAAT	-0.19 kcal/mol
GTCATCACGTGTGTTA	0.15 kcal/mol
AGTTTCACGTGAGGCT	0.35 kcal/mol
TGTTACACGTGTAATC	0.25 kcal/mol
GTTCACACGTGGTTTT	0.17 kcal/mol
AGTGACACGTGTTTCG	0.19 kcal/mol

Sequence	relative binding free energy
ATTGTCACGTGAGTTC	0.24 kcal/mol
TTAGGCACGTGCGTTA	-0.15 kcal/mol
ATCGTCACGTGTACGG	0.29 kcal/mol
GAGCGCACGTGTTGGT	0.01 kcal/mol
CTTATCACGTGTTTGG	0.05 kcal/mol
TTGGGCACGTGGCGAA	-0.24 kcal/mol
ACTAGCACGTGGGAGT	-0.12 kcal/mol
TACGACACGTGGTAGT	-0.11 kcal/mol
TGTGACACGTGAGAGA	0.24 kcal/mol
GGTTTCACGTGGGTTA	0.21 kcal/mol
TGGCGCACGTGTGCAT	-0.1 kcal/mol
TAAAGCACGTGTTGTT	-0.03 kcal/mol
AGGACCACGTGGGTGT	-0.24 kcal/mol
TTAATCACGTGGTGGC	-0.03 kcal/mol
TGGCTCACGTGGTGGA	0.18 kcal/mol
GTCGGCACGTGAAATG	0.22 kcal/mol
GGTTGCACGTGGTTGG	0.03 kcal/mol
TTAAACACGTGTTTGA	-0.09 kcal/mol
GGTTACACGTGGGTAG	0.07 kcal/mol
GCATTCACGTGCGGTG	0.21 kcal/mol
TTAGGCACGTGGAAAT	0.18 kcal/mol
TAGTTCACGTGGGGTA	0.23 kcal/mol
AGAGACACGTGGGCTT	0.03 kcal/mol
TGTGGCACGTGAGGCA	0.2 kcal/mol
GTATCCACGTGTGAGT	0.23 kcal/mol
CGGTCCACGTGGTGTG	-0.07 kcal/mol

Sequence	relative binding free energy
TAGTACACGTGGTTTA	0.15 kcal/mol
TATAGCACGTGGGAAG	-0.22 kcal/mol
AAATGCACGTGGTTTG	-0.08 kcal/mol
TGGACCACGTGGGGTG	-0.22 kcal/mol
TGTAACACGTGTAATT	0.16 kcal/mol
GGAATCACGTGGCGTT	0.17 kcal/mol
ATCTTCACGTGTTTTG	0.33 kcal/mol
GGTTCCACGTGTTGGT	0.14 kcal/mol
ATGGTCACGTGAAATG	0.26 kcal/mol
GGGTTCACGTGTTGTT	0.33 kcal/mol
TGATACACGTGTCGAT	0.14 kcal/mol
TGGGACACGTGGTAAA	-0.04 kcal/mol
CGTGGCACGTGCGGAG	-0.17 kcal/mol
CCTGGCACGTGGTGTG	-0.14 kcal/mol
CTGCGCACGTGGTATG	-0.2 kcal/mol
GGCTCCACGTGAGTGG	0.22 kcal/mol
TCTTGCACGTGTTGAT	0.03 kcal/mol
TGAATCACGTGGGCGG	0.11 kcal/mol
CGGGACACGTGTGTGA	-0.01 kcal/mol
AGGGCCACGTGTGTAG	-0.14 kcal/mol
TAGAGCACGTGGTAGA	-0.38 kcal/mol
GGGCACACGTGAGGTA	0.16 kcal/mol
TAATGCACGTGAGTGA	0 kcal/mol
TATTACACGTGAGTCT	0.4 kcal/mol
CTCATCACGTGTGGGT	0.15 kcal/mol
AGATACACGTGCTGGT	-0.09 kcal/mol

Sequence	relative binding free energy
GCGTGCACGTGCGGGA	0.02 kcal/mol
GTTAACACGTGGCGTA	0.02 kcal/mol
TGATACACGTGTGTAG	0.1 kcal/mol
AGTAGCACGTGCATTG	-0.08 kcal/mol
GATAACACGTGTTTTT	0.18 kcal/mol
ATTTTCACGTGGGGCC	0.18 kcal/mol
CATATCACGTGGGGTA	-0.15 kcal/mol
GGAGGCACGTGCGCGG	-0.27 kcal/mol
GGTGTCACGTGTTTCT	0.18 kcal/mol
TTTGGCACGTGGGCCT	-0.24 kcal/mol
TGAGGCACGTGAGAAT	0.1 kcal/mol
GGTCGCACGTGCATTG	0.14 kcal/mol
GTAGGCACGTGCTGGT	-0.11 kcal/mol
GGGAACACGTGGGACG	-0.02 kcal/mol
TTATGCACGTGATATA	-0.07 kcal/mol
TGGGGCACGTGCTTGA	-0.2 kcal/mol
TTCGGCACGTGCGATG	-0.01 kcal/mol
CCGTACACGTGGGGGA	0 kcal/mol
TTGGCCACGTGGGAAT	-0.11 kcal/mol
AGTAGCACGTGAATTT	0.15 kcal/mol
GGAGGCACGTGACAGT	-0.05 kcal/mol
TTGTGCACGTGGCATG	-0.13 kcal/mol

Source: the BET-seq Pho4 binding data (Le et al. 2018)
